Test results as given in US20220220204A1 (NANJING GENSCRIPT BIOTECH, published 2022).

Target: T1, human LAG-3 (LAG-3 effector Jurkat T cells) (human, UniProt P18627 23-525)
T1 sequence (looked up): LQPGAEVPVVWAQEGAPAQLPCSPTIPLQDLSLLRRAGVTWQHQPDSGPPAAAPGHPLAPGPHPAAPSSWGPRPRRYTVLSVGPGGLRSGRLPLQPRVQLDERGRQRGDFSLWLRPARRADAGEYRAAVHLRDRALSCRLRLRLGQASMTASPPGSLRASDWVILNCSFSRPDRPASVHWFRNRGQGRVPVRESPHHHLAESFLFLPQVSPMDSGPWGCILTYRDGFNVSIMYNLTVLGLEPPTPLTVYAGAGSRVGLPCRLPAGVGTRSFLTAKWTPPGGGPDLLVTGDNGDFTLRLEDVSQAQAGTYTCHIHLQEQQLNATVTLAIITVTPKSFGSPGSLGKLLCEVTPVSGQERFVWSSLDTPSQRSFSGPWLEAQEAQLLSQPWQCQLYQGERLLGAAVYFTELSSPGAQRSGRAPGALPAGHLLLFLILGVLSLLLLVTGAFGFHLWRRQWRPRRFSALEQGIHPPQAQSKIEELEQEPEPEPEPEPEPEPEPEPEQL
Experiment: cell-based or functional assay

B1: sdAb-LAG3-IgG4PE (Fc fusion)
chain: EVQLVESGGGLVQPGGSLRLSCAASGYTVSSYCMGWFRQAPGKGREGVSAIDSDGSVSYADSVKGRFTISKDNSKNTLYLQMNSLRAEDTAVYFCAADLCWVDQDQGEYNTWGQGTLVTVSS[letters of human IgG4 Fc with changes not shown]
- Bottom (LAG-3 blockade bioassay): 343000
- Log EC50 (LAG-3 blockade bioassay): 1.23
- Top (LAG-3 blockade bioassay): 867000
